Source: the CheMixHub ionic liquid set
Further values from the same series stand in other lists.

Assay: xn = mol fraction of the nth substance listed
Settings: 101 kPa

CC[N+](C)(CC)CCOC.F[B-](F)(F)F + O=C1CCCO1
Settings | electrical conductivity, x1 = 0.7999 [S/m] | electrical conductivity, x1 = 0.9008 [S/m] | electrical conductivity, x1 = 1 [S/m] | viscosity, x1 = 0.7999 [mPa·s] | viscosity, x1 = 0.9008 [mPa·s] | viscosity, x1 = 1 [mPa·s]
288.15 K | – | 0.132 | 0.094 | – | 248 | 288
293.15 K | – | 0.184 | 0.136 | – | 189.5 | 228
298.15 K | 0.302 | 0.251 | 0.189 | 116.5 | 144.1 | 178.6
303.15 K | 0.395 | 0.336 | 0.259 | 86.3 | 109.8 | 140.4
308.15 K | 0.504 | 0.421 | 0.347 | 63.7 | 84.1 | 111.4
313.15 K | 0.628 | 0.537 | 0.449 | 48 | 65.2 | 89.3
318.15 K | 0.772 | 0.67 | 0.568 | 36.14 | 49.8 | 70.5
323.15 K | 0.919 | 0.811 | 0.711 | 27.6 | 39.07 | 57.5
328.15 K | 1.08 | 0.964 | 0.868 | 20.88 | 29.96 | 46.04
333.15 K | 1.26 | 1.16 | 1.05 | 16.65 | 23.35 | 37.06
338.15 K | 1.46 | 1.36 | 1.25 | 12.19 | 17.8 | 30.41
343.15 K | 1.69 | 1.58 | 1.48 | 8.99 | 13.6 | 25.21
348.15 K | 1.93 | 1.835 | 1.732 | 7.96 | 10.95 | 20.95
353.15 K | 2.19 | 2.09 | 1.99 | 6.07 | 8.16 | 17.24
